Experimental data taken from PMC6796939.
No constants are given. Whether binding was seen depends on the method and setting. For some of these results: In cells and extracts the contact can be indirect. Some results given as binding are weak or reduced against the parent protein; the word gives no strength. Where a sequence is shown, tags or fusion partners need not be part of it.

Columns and labels:
GST-C4 (Drosophila) = molecular target: T1, GST-C4 (Drosophila) (UniProt P18502); experiment: pull-down; GST pull-down with purified His-PKAc and GST control or GST-tagged Ptc intracellular domains (GST-C1, -C4, -C7); detected by western blot; both purified
T1 sequence: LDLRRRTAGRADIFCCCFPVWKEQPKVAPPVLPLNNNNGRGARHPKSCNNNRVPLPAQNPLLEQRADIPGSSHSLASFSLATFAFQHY

GST-C7 (Drosophila) = molecular target: T2, GST-C7 (Drosophila) (UniProt P18502); experiment: as above
T2 sequence: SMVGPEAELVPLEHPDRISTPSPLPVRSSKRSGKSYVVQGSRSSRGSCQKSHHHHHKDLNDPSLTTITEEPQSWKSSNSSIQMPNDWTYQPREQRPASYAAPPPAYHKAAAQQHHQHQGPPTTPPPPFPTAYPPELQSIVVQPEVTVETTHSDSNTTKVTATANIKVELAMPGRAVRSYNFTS

Myc-SmoWT (Drosophila) = Myc-SmoWT (Drosophila) (UniProt P91682); experiment: western blot of dimer and monomer bands; S2 cells transfected with Myc-SmoWT and dsRNA against ptc 5'UTR, with or without Ptc variants; dimer and monomer forms of Myc-SmoWT on western blot
[1] = molecular target: HA tagged PKAc (3XHA-PKAc) (Drosophila) (UniProt P12370); experiment: co-IP; S2 cells co-transfected with tagged constructs; lysed in NP-40 buffer (50 mM Tris-Cl pH 8.0, 0.1 M NaCl, 1% NP-40, 10% glycerol, 1.5 mM EDTA) at 4 °C; primary antibody (anti-V5, anti-HA, anti-Flag) 2 h, protein A/G 1 h; western blot; some panels with or without Hh (Hh plasmid and Hh conditioned medium), some with dsRNA against ptc 5'UTR to knock down endogenous Ptc

For “purified His-tagged PKAc (His-PKAc) (from UniProt P12370 1-353) (enzyme)”, the binding (GST-C4 (Drosophila)) was “binds” and the binding (GST-C7 (Drosophila)) was “no binding”.

B1: Myc-SmoWT (receptor, UniProt P91682 32-1036)
chain: SSAKFGSTTPASAQQSDVELEPINGTLNYRLYAKKGRDDKPWFDGLDSRHIQCVRRARCYPTSNATNTCFGSKLPYELSSLDLTDFHTEKELNDKLNDYYALKHVPKCWAAIQPFLCAVFKPKCEKINGEDMVYLPSYEMCRITMEPCRILYNTTFFPKFLRCNETLFPTKCTNGARGMKFNGTGQCLSPLVPTDTSASYYPGIEGCGVRCKDPLYTDDEHRQIHKLIGWAGSICLLSNLFVVSTFFIDWKNANKYPAVIVFYINLCFLIACVGWLLQFTSGSREDIVCRKDGTLRHSEPTAGENLSCIVIFVLVYYFLTAGMVWFVFLTYAWHWRAMGHVQDRIDKKGSYFHLVAWSLPLVLTITTMAFSEVDGNSIVGICFVGYINHSMRAGLLLGPLCGVILIGGYFITRGMVMLFGLKHFANDIKSTSASNKIHLIIMRMGVCALLTLVFILVAIACHVTEFRHADEWAQSFRQFIICKISSVFEEKSSCRIENRPSVGVLQLHLLCLFSSGIVMSTWCWTPSSIETWKRYIRKKCGKEVVEEVKMPKHKVIAQTWAKRKDFEDKGRLSITLYNTHTDPVGLNFDVNDLNSSETNDISSTWAAYLPQCVKRRMALTGAATGNSSSHGPRKNSLDSEISVSVRHVSVESRRNSVDSQVSVKIAEMKTKVASRSRGKHGGSSSNRRTQRRRDYIAAATGKSSRRRESSTSVESQVIALKKTTYPNASHKVGVFAHHSSKKQHNYTSSMKRRTANAGLDPSILNEFLQKNGDFIFPFLQNQDMSSSSEEDNSRASQKIQDLNVVVKQQEISEDDHDGIKIEELPNSKQVALENFLKNIKKSNESNSNRHSRNSARSQSKKSQKRHLKNPAADLDFRKDCVKYRSNDSLSCSSEELDVALDVGSLLNSSFSGISMGKPHSRNSKTSCDVGIQANPFELVPSYGEDELQQAMRLLNAASRQRTEAANEDFGGTELQGLLGHSHRHQREPTFMSESDKLKMLLLPSK
With B1 the binding (Myc-SmoWT (Drosophila)) was “binds”.

B2: V5-tagged Ptc (PtcWT-V5) (receptor, UniProt P18502 1-1286)
chain: MDRDSLPRVPDTHGDVVDEKLFSDLYIRTSWVDAQVALDQIDKGKARGSRTAIYLRSVFQSHLETLGSSVQKHAGKVLFVAILVLSTFCVGLKSAQIHSKVHQLWIQEGGRLEAELAYTQKTIGEDESATHQLLIQTTHDPNASVLHPQALLAHLEVLVKATAVKVHLYDTEWGLRDMCNMPSTPSFEGIYYIEQILRHLIPCSIITPLDCFWEGSQLLGPESAVVIPGLNQRLLWTTLNPASVMQYMKQKMSEEKISFDFETVEQYMKRAAIGSGYMEKPCLNPLNPNCPDTAPNKNSTQPPDVGAILSGGCYGYAAKHMHWPEELIVGGAKRNRSGHLRKAQALQSVVQLMTEKEMYDQWQDNYKVHHLGWTQEKAAEVLNAWQRNFSREVEQLLRKQSRIATNYDIYVFSSAALDDILAKFSHPSALSIVIGVAVTVLYAFCTLLRWRDPVRGQSSVGVAGVLLMCFSTAAGLGLSALLGIVFNAASTQVVPFLALGLGVDHIFMLTAAYAESNRREQTKLILKKVGPSILFSACSTAGSFFAAAFIPVPALKVFCLQAAIVMCSNLAAALLVFPAMISLDLRRRTAGRADIFCCCFPVWKEQPKVAPPVLPLNNNNGRGARHPKSCNNNRVPLPAQNPLLEQRADIPGSSHSLASFSLATFAFQHYTPFLMRSWVKFLTVMGFLAALISSLYASTRLQDGLDIIDLVPKDSNEHKFLDAQTRLFGFYSMYAVTQGNFEYPTQQQLLRDYHDSFVRVPHVIKNDNGGLPDFWLLLFSEWLGNLQKIFDEEYRDGRLTKECWFPNASSDAILAYKLIVQTGHVDNPVDKELVLTNRLVNSDGIINQRAFYNYLSAWATNDVFAYGASQGKLYPEPRQYFHQPNEYDLKIPKSLPLVYAQMPFYLHGLTDTSQIKTLIGHIRDLSVKYEGFGLPNYPSGIPFIFWEQYMTLRSSLAMILACVLLAALVLVSLLLLSVWAAVLVILSVLASLAQIFGAMTLLGIKLSAIPAVILILSVGMMLCFNVLISLGFMTSVGNRQRRVQLSMQMSLGPLVHGMLTSGVAVFMLSTSPFEFVIRHFCWLLLVVLCVGACNSLLVFPILLSMVGPEAELVPLEHPDRISTPSPLPVRSSKRSGKSYVVQGSRSSRGSCQKSHHHHHKDLNDPSLTTITEEPQSWKSSNSSIQMPNDWTYQPREQRPASYAAPPPAYHKAAAQQHHQHQGPPTTPPPPFPTAYPPELQSIVVQPEVTVETTHSDSNTTKVTATANIKVELAMPGRAVRSYNFTS
With B2 the binding [1] was “binds”.
